Experimental data reported in the antibiotic and cytotoxicity screens of Wong et al. (2023).
The other results are listed elsewhere or left out.

test system: HSkMC (human skeletal muscle cells); experiment: cytotoxicity call (relative viability < 0.9); details: 10 µM

**Q.** With `C[C@@H]1CN([C@H](C)CO)C(=O)c2cc(NC(=O)Cn3cnnn3)ccc2O[C@@H]1CN(C)C(=O)Nc1ccccc1` as the compound, how does the cytotoxicity call read?
**A.** inactive

**Q.** How did the cytotoxicity call turn out when `C[C@@H]1CN([C@H](C)CO)C(=O)c2cc(NC(=O)CCN3CCOCC3)ccc2O[C@H]1CN(C)C(=O)Nc1ccccc1` was run?
**A.** inactive

**Q.** With `C[C@@H]1CN([C@H](C)CO)C(=O)c2cccc(NC(=O)CCCCCC(=O)Nc3ccccc3N)c2O[C@@H]1CN(C)CC1CCCCC1` as the compound, how does the cytotoxicity call read?
**A.** inactive

**Q.** How did the cytotoxicity call turn out when `O=C(O)CNS(=O)(=O)c1ccccc1F` was run?
**A.** inactive

**Q.** How did the cytotoxicity call turn out when `C[C@@H]1CN([C@H](C)CO)C(=O)c2cc(NC(=O)c3ccccc3)ccc2O[C@@H](C)CCCCO[C@H]1CN(C)C(=O)Nc1ccc(C(F)(F)F)cc1` was run?
**A.** inactive

**Q.** With `C[C@@H]1CN([C@@H](C)CO)S(=O)(=O)c2ccc(C#Cc3ccccc3F)cc2O[C@H]1CN(C)C(=O)Cc1cccnc1` as the compound, how does the cytotoxicity call read?
**A.** inactive

**Q.** For `CCCCC(=O)OC1CCC2C3CCc4cc(O)ccc4C3CCC12C` (stereo not given), which cytotoxicity call is on record?
**A.** inactive

**Q.** For `COc1ccc(C#Cc2ccc([C@H]3[C@@H](CO)N4CCCCN(S(=O)(=O)c5cn(C)cn5)C[C@H]34)cc2)cc1`, which cytotoxicity call is on record?
**A.** active

**Q.** For `COC(=O)c1c2oc(c1C(=O)OC)C(=O)N[C@@H](Cc1ccccc1)Cn1cc(nn1)[C@H](Cc1ccccc1)NC(=O)N[C@@H](CO)CC2`, which cytotoxicity call is on record?
**A.** inactive

**Q.** How did the cytotoxicity call turn out when `C[C@H]1CCCCO[C@@H](CN(C)S(=O)(=O)c2ccc(Cl)cc2)[C@@H](C)CN([C@@H](C)CO)C(=O)c2cc(NC(=O)CCC(F)(F)F)ccc2O1` was run?
**A.** inactive

**Q.** For `C[C@@H]1CCCCO[C@H](CN(C)CC2CC2)[C@@H](C)CN([C@H](C)CO)C(=O)c2cc(NC(=O)Nc3cccc4ccccc34)ccc2O1`, which cytotoxicity call is on record?
**A.** inactive

**Q.** How did the cytotoxicity call turn out when `COc1ccc([Si](C)(C)[C@@H]2[C@@H](CCO)O[C@]3(C(=O)N(Cc4ccccc4)c4ccc(N5CCCCC5=O)cc43)[C@H]2C)cc1` was run?
**A.** inactive

**Q.** Which cytotoxicity call does the source give for `COCC(=O)Nc1ccc2c(c1)C(=O)N(C)[C@@H]1CC[C@H](CC(=O)NCc3ccc(OC)cc3)O[C@H]1CO2` here?
**A.** inactive

**Q.** Which cytotoxicity call does the source give for `O=C(O)c1ccnc(C(=O)O)c1` here?
**A.** inactive

**Q.** For `CN1CCN(C(=O)C[C@@H]2CC[C@H]3[C@@H](COC[C@@H](O)CN3S(=O)(=O)c3cccc(Cl)c3)O2)CC1`, which cytotoxicity call is on record?
**A.** inactive

**Q.** Which cytotoxicity call does the source give for `NS(=O)(=O)c1ccc(C(=O)O)cc1` here?
**A.** inactive

**Q.** Which cytotoxicity call does the source give for `C[C@@H]1CCCCO[C@H](CN(C)C(=O)Nc2ccc(F)cc2)[C@H](C)CN([C@@H](C)CO)C(=O)c2cc(NC(=O)Nc3ccc4c(c3)OCO4)ccc2O1` here?
**A.** inactive

**Q.** `O=C1CCCSc2ccccc21` was tested. Which cytotoxicity call did it give?
**A.** inactive

**Q.** Which cytotoxicity call does the source give for `COc1ccc(NC(=O)N(C)C[C@@H]2OCCCC[C@H](C)Oc3ccc(NC(=O)c4ccncc4)cc3C(=O)N([C@@H](C)CO)C[C@H]2C)cc1` here?
**A.** inactive

**Q.** With `Cc1ccc(S(=O)(=O)Nc2ccc3c(c2)C(=O)N([C@H](C)CO)C[C@H](C)[C@@H](CN(C)CC2CCCCC2)OCCCC[C@@H](C)O3)cc1` as the compound, how does the cytotoxicity call read?
**A.** inactive

**Q.** With `Cc1noc(C)c1S(=O)(=O)Nc1ccc2c(c1)C(=O)N([C@@H](C)CO)C[C@@H](C)[C@@H](CN(C)S(=O)(=O)c1ccc(Cl)cc1)O2` as the compound, how does the cytotoxicity call read?
**A.** inactive

**Q.** Which cytotoxicity call does the source give for `CN1C(=O)c2cc(NC(=O)c3ccc(F)c(F)c3)ccc2OC[C@H]2O[C@H](CC(=O)N3CCOCC3)CC[C@H]21` here?
**A.** inactive

**Q.** `C[C@@H]1CCCCO[C@@H](CN(C)Cc2ccc(Cl)c(Cl)c2)[C@@H](C)CN([C@H](C)CO)C(=O)c2cc(NC(=O)NC3CCCCC3)ccc2O1` was tested. Which cytotoxicity call did it give?
**A.** inactive

**Q.** With `O=C(C[C@H]1CC[C@@H]2[C@H](COC[C@H](O)CN2C(=O)c2cnccn2)O1)N1CCN(c2ccccc2)CC1` as the compound, how does the cytotoxicity call read?
**A.** inactive

**Q.** How did the cytotoxicity call turn out when `COCC#Cc1ccc2c(c1)O[C@@H](CN(C)C(=O)C1CCOCC1)[C@@H](C)CN([C@H](C)CO)S2(=O)=O` was run?
**A.** inactive

**Q.** With `COc1ccc2c3c([nH]c2c1)[C@H](CO)N(C[C@]13CCN(CC1)CC1CCCC1)S(=O)(=O)c1cn(cn1)C` as the compound, how does the cytotoxicity call read?
**A.** inactive

**Q.** How did the cytotoxicity call turn out when `C[C@@H]1CN([C@H](C)CO)C(=O)c2cc(NC(=O)c3ccccc3)ccc2O[C@@H](C)CCCCO[C@H]1CN(C)C(=O)CCC(F)(F)F` was run?
**A.** inactive

**Q.** With `C[C@@H]1CN([C@H](C)CO)C(=O)c2ccccc2-c2ccccc2CO[C@@H]1CN(C)C(=O)Nc1ccccc1C(F)(F)F` as the compound, how does the cytotoxicity call read?
**A.** inactive

**Q.** How did the cytotoxicity call turn out when `C[C@H]1CN([C@@H](C)CO)C(=O)c2cc(NC(=O)CCCCCC(=O)Nc3ccccc3N)ccc2O[C@H]1CN(C)Cc1ccc(Oc2ccccc2)cc1` was run?
**A.** inactive

**Q.** How did the cytotoxicity call turn out when `C[C@@H]1CN([C@H](C)CO)C(=O)c2cc(NC(=O)CCCN(C)C)ccc2O[C@@H](C)CCCCO[C@H]1CN(C)CC1CCCCC1` was run?
**A.** inactive
